The chains are these.
B1: OR4K15 (parent)
chain: GUUAACGGUCAUAGGCCAUGGAAACUAGGAGCACCAUUUCGCUGCCAGUGAAGAAAUGAACAAAGAAAAUCUGGGCCAGGCAGGCAUCAAAAGAAAUAGUCUUGCGCUCAACCAGAAAGUCUGUAAUCAUUUUAAGGGUA

Read counts are not given, so values of variants with three or more changes are uncertain.

The variants in this series derive from B1. Description: self-cleavage, relative activity (ratio to wild type); higher = more cleavage; in vitro, sequencing; the parent is a self-cleaving ribozyme.
As to A4G A13U A116G A140G, the self-cleavage was determined as 1.24. With U3C A13G A18G A64G C77U the figure was 1.04. As for A5G A56G A62C, the figure is 0.97; as for A5G A30G U120C, 1.06; as for A5G A36G U43C A66G A129G, 0.59. With A4G U9C A47G A59G A94G A117G the figure was 0.47. Turning to A4U U9C A68G A94G, the self-cleavage came out at 0.53.

Take A5G A55G U120A: the self-cleavage came to 1.32. With A4G U37C U57A U70C A78U the figure was 0.45; with A5G A11G A67G, 0.3. In the case of A5G A23G A55G, the self-cleavage was 1.17. With A5G A22G U37C the figure was 0.96; with U3G U37C A129G, 0.35. With A5G A60U A114G A125G, the self-cleavage turned out to be 0.56. As for A5G A18U U127C U133C, the figure is 0.54; as for U3C G73A U100C, 0.18; as for A5G A18G A51G A68G U103C, 0.97.

In the case of A5G A55U U132C, the self-cleavage came to 1.76.

On to U3C A62C C113A, for which the self-cleavage stood at 0.06. With A4G A78G A114U the figure was 0.03; with A5G A24G A60G U127C, 0.55; with U3C U103C A116U U130C, 0.15. With A5C A59U A90C A134G the figure was 0.53.

For A5C A82G G137A, the self-cleavage is 0.43. As for A5C A47G A67G G93U, the figure is 1.12; as for U3C U19A A62C G136U, 1.3. In the case of A5G A55G A63G A78C U100C, the self-cleavage worked out at 0.71. With U3C U43A A64G G80A A90U the figure was 0.27; with A4G A33G G84C, 0.37; with A5C U49A A94U A129U, 0.83.

In the case of A4U A23G A47G A52G U127A, the self-cleavage was determined as 0.67. Take A4G A67G A96G: the self-cleavage was found to be 0.9. As for A4U A51G A54G A118G, the figure is 0.91; as for A5G A13U A22G G29C A51U A54G A116C, 0.04. With A4G U12C A13G U70C A110G the figure was 0.04; with A5G A24G G53U U72A U103C A118G, 0.06; with A5G A24G A27U A59G A63U A135U, 0.11.

On to A5G A67G U70A, for which the self-cleavage was 1.35. As for U3C A55G A91U, the figure is 1.2; as for A4G U72C U103A, 0.18; as for A5G A33G G58A U122C, 1.46. As for U3C U37G U38A A60G G65A, the figure is 0.57; as for A5G A55G A59G A92G A94G, 1.67; as for A5G A68G C88A, 0.91. With A5G A62G A66G the figure was 1.09. For A4G A22G A66G U72C A90G A126G, the self-cleavage was determined as 0.39.

As to U3C A67G U103C, the self-cleavage was 0.98. Regarding A4G U49C A95G, the self-cleavage amounted to 1.48. With A5G A33G A36G U70C U127A the figure was 0.84.

Consider A4G C42U G58U A62G, for which the self-cleavage came to 1.04. With U3C G44C A64G U108C the figure was 0.03; with A5G A52G U72A, 0.2. With A5C A52G A95G A114U A118G the figure was 0.49.

For the variant U3C U19C U43C U49C A55G A90G, the self-cleavage amounted to 0.7.

As to U3C A33U A67U A78G A126U, the self-cleavage turned out to be 0.24. As for U3C U9C A13G A56G U70C, the figure is 0.65; as for A5G A67G U122C, 1.3. Take U3C A60G U120C: the self-cleavage is 0.64. With A4G A114G A118G A134G the figure was 0.79; with A5G A30G U57C, 0.48.

For U3C A62G U133C, the self-cleavage amounted to 2.28.

For the variant A4G U49C A60G A82G A89G A98G U122C, the self-cleavage amounted to 0.05.

For the variant A5C A54G A94U U132C, the self-cleavage is 1.04.

With A4U A24G A52G U57C, the self-cleavage stood at 0.89.

On to A4G A55U A60G, for which the self-cleavage was 1. As for A5G A47G A66G U108A A111G, the figure is 0.03; as for U3C A47U A55G, 0.27. With A4G A59G A92G A94U U120C the figure was 0.41.

For the variant U3C A33U U122C, the self-cleavage was 1.24. As for A4G U132C G138A, the figure is 0.95; as for A5G A18U A60G, 0.82; as for A5G A24G U43C A90U A140U, 1.24. In the case of U3C A55G A66G A82G, the self-cleavage came to 0.38. As for A5G A33U A51G A92G, the figure is 1.4; as for A5G A63G A96G, 0.68. With A5G A22G A47G U72C A134G the figure was 0.1. As for A4G U19C C25U A111G, the figure is 0.15; as for A5G A55G U72C G75C, 0.27. On to A4G C88U U130C, for which the self-cleavage amounted to 1.58. As for A5G A52U A86U U130C U131C, the figure is 0.81; as for A5G A62G A92G, 0.53; as for A4U C25A A90G, 1.42.

With A4G A33C A126G, the self-cleavage is 0.98. As to A4G A51G A60C, the self-cleavage was found to be 1.4. As for U3G U49C A126G, the figure is 0.82; as for A5G A60G A62G A78G U87C, 0.09; as for A4G A82G U108A, 0.13. As for A5G A13U U57G U122C, the figure is 1.07. As for A5G A24G A33G A52G A82G A86G, the figure is 0.36; as for A5G A18U A33G A55C, 0.9; as for U3C A11U A129G, 0.67. Regarding A5G A11U U38C A78U U102C, the self-cleavage is 0.86. Turning to A5G A23G A33G U72A A126G, the self-cleavage is 0.19. As for A5C A69G A94G U130C, the self-cleavage is 0.85.

For the variant A4G U39C U124C, the self-cleavage is 1.02. With A5C U9C A23G U39C the figure was 0.51; with A5G A59G A60G A140G, 1.21; with U3C A51G A95C U120C G138U, 0.7.

For the variant U3C A52G A90G G137U, the self-cleavage is 0.73. With A5C A18G A22G A92G U120A A126G the figure was 0.8; with A4G A66U U87A, 1.4. With A4G A22U U72C A92G the figure was 0.31; with U3G A51G A67C A91G A129G, 1.35; with U3C A22G A98G U103C, 0.11. With A5G A22G A47G A90G U120C U122C the figure was 0.47. Regarding U3C A5U U131C, the self-cleavage stood at 0.85. With A4G A5G A47G G53A the figure was 0.8; with A4G A51G A86G A91G A118G U139C, 0.1.

Take A5G A66G U120C U124C: the self-cleavage amounted to 0.44. With A5G A52G U72A A90U U124C the figure was 0.1; with A5G A33G A52G, 0.41; with A4G G84A A114G U120A A126U A134G, 0.05. As for U3C A96G A125G, the figure is 0.26; as for A4G A56G A59G U103C A126C, 0.29; as for A5G A23G U49C, 1.17.

On to A4G U43C U131C, for which the self-cleavage came to 0.34.

Consider A4G U38C U122C, for which the self-cleavage is 1.5.

In the case of A5G A18U A59G A135G, the self-cleavage was found to be 0.87.

Regarding A4U U26A A66G U70C, the self-cleavage was 0.7.

Consider A4G U9C A117G U139G A140U, for which the self-cleavage came to 2.09. As for A5G A59G U72G A96U A118G, the figure is 0.24. As for A4G A64G U72A A118G, the figure is 0.14.

Take A5G A23G A92G U108C: the self-cleavage was 0.06. With A4U A18C U26A A114U the figure was 0.1; with U3C A56G A96G A114G, 0.71; with A4G A60U A68U A69G A110G A118G, 0.24. Take U3C A51G C81A U87A U132G: the self-cleavage is 0.09. For the variant A4G A51G U102C A111G, the self-cleavage is 0.04. With A4G U9C A82U the figure was 0.19. As for U3C A30G G106U U139C, the figure is 0.11. With A5G A22G C42U the figure was 1.28; with A4G A13G A24G U70C A111G A125C, 0.15; with A4G A33G U70C A114G A116G, 0.48. With A5G A63G G73A, the self-cleavage was 0.2.

Consider A5G A24G A67G U87C A89G A96U A116G, for which the self-cleavage turned out to be 0.56. With A5G A18G A36U A92G the figure was 0.26; with U3C A36U U43C A55G A64U C76U, 0.1.

In the case of A5G A13U U57C A90G, the self-cleavage was 0.52. With A4G A60G A78G the figure was 0.46. With A4G A55G A59G A98G A116G the figure was 0.06; with A5G A30U U127C, 1.12; with A4G U38C A56G A67G A94G A117G, 1.46.

On to A4G A11U A63G A92G U120C U132A, for which the self-cleavage amounted to 0.78. As for A5G A68U A95G A110U, the figure is 1.45; as for U3C A22G A68G, 1.89; as for A5G A11G A95G U103C A114G, 0.16. With A5C C34U U37C U57C A63U the figure was 0.57; with A5G A27G A134G A135U, 1.34.

In the case of A4G U38C A125G, the self-cleavage came to 0.57.

On to A5C U38A U39C U122C A126G, for which the self-cleavage turned out to be 0.59. With A4G U19A U49A A82G A118G the figure was 0.88; with A4U U9C U130C, 1.07; with A5G A18U A55G U127C, 1.41. U3C U26C A78G: the self-cleavage turned out to be 0.32.

With A5G A18U A24U U49C G137A, the self-cleavage turned out to be 1.12.

For the variant U3C U39A A52G U57C A95G, the self-cleavage was 1.26. With A5C U37C A114U the figure was 0.25; with A5C A62G U108C, 0.04; with A4G A30G G53U G106C, 0. With A4G A52G U70C A110C the figure was 0.15; with A4G A36U G53A A59G A68G A95G, 1.24. In the case of A5G A11C A33G A47G A69U, the self-cleavage amounted to 0.91.

On to U3C A22G A63G U132C, for which the self-cleavage came to 1.58. Turning to A4G U38C A51G A89U, the self-cleavage is 1.18. With A4G U9C U12C A51G A68G U108C the figure was 0.2; with A5G A56G A78G C81U, 0.25. As for A5C A47U A60G A129G, the figure is 0.61.

Source of the values: the RNAGym collection of RNA variant scans (doi:10.7554/elife.90254).
